# Test results taken from PMC6919601, “Identification of Plasmodium dipeptidyl aminopeptidase allosteric inhibitors by high throughput screening” (PLoS ONE, 2019).
# About 230 (0.21%) of roughly 110,000 compounds showed an effect of 50% or more. The list shows a part of the results.
# Target: DPAP1 (Plasmodium falciparum, UniProt Q8IIJ9)
# Assay: primary screen, percent inhibition; read by cleavage of a fluorogenic dipeptide substrate; higher = more effect of the substance
# Set-up: species or system P. falciparum D10 trophozoite lysates; single well
# 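Further: 30 min substrate incubation versus DMSO and 10 µM JCP410 controls.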
# Chain of DPAP1 (Q8IIJ9 whole entry, looked up): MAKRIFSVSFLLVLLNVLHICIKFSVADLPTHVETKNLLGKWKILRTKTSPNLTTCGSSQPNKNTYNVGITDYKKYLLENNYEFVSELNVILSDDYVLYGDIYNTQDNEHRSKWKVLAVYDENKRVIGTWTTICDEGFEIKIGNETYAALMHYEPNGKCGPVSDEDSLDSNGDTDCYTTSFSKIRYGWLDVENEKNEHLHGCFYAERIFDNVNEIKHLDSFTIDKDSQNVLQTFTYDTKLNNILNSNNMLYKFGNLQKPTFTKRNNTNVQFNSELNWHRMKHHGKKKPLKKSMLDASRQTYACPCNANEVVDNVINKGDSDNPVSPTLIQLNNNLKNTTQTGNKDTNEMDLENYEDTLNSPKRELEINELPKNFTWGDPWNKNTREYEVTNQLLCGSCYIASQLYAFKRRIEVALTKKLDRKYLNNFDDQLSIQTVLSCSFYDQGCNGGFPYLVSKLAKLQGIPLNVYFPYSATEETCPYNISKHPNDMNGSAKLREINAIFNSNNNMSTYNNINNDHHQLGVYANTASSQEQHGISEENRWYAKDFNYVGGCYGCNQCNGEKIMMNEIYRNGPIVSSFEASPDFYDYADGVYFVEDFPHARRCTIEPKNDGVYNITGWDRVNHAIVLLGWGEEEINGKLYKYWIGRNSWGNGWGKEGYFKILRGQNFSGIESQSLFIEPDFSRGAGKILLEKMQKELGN
row,Structure (SMILES),% Inhibition @ 10 uM [%]
1,Cc1cc(C(F)(F)F)c2c(C)nn(-c3ccc(C)c(C)c3)c2n1,0.221
2,CCNc1ccc(Cl)cc1[N+](=O)[O-],8.23
3,CCOc1c(Cl)cc(/C=C2/SC(=O)N(C(C)C)C2=O)cc1OC,-2.19
4,O=C(c1cc(-c2ccc(F)cc2)no1)N1CCN(Cc2ccc3c(c2)OCO3)CC1,-3.91
5,COc1ccc(NS(=O)(=O)c2ccc(OC)c(Cl)c2Cl)cc1Cl,-1.24
6,CCOc1ccc(CNc2nc3nc4c(c(O)n3n2)CCC4)cc1,-4.19
7,COc1ccc(C2CC(=O)NC2=O)cc1Br (stereo not drawn),1.24
8,COc1ccc(S(=O)(=O)Nc2cc(OC)ccc2OC)cc1,3.72
9,CC(C)CC(Nc1nc(Oc2ccccc2)nc(Oc2ccccc2)n1)C(=O)O (stereo not drawn),-4.01
10,COc1ccc(C2c3c(oc4ccc(C)cc4c3=O)C(=O)N2c2nc(C)c(C(C)=O)s2)cc1OC (stereo not drawn),-3.13
11,O=C(NCCCN1CCCC1=O)c1cc2c(Cl)nc3ccccc3c2s1,3.6
12,C=CCn1c(=N)n(CC(O)c2ccc(Cl)c(Cl)c2)c2ccccc21 (stereo not drawn),0.147
13,COc1cc(CN2CCN(S(=O)(=O)c3ccc(Cl)cc3)CC2)cc(OC)c1OC,-3.03
14,Cc1cc(C)n2nc(SCC(=O)c3cccs3)nc2n1,0.627
15,CCc1ccc(OCC(=O)Nc2ccc(C(C)=O)cc2)c(Br)c1,-5.29
16,Cc1ccc(S(=O)(=O)Cc2nc(-c3ccc(C(=O)NCc4ccccn4)cc3)oc2C)cc1,-2.92
17,Cc1ccc2c(O)c(C(=O)c3ccccc3)cnc2n1,1.15
18,Fc1ccc(-c2nnn3c2nc(N2CCOCC2)c2ccccc23)cc1,-2.92
19,O=C(C1CCCC1)N1CCN(C(=O)C2CCCC2)CC1,-2.82
20,CCCN1CCC(N2CCCC(C)C2)CC1 (stereo not drawn),3.19
21,COc1ccc(C2NC(=O)NC(C)=C2C(=O)Nc2cc(Cl)ccc2C)cc1 (stereo not drawn),5.85
22,COc1ccc(-c2noc(CNC(=O)c3cccs3)n2)cc1,-2.99
23,O=C(CC(Cc1ccccc1)C(=O)O)NC1CCCCC1 (stereo not drawn),3.17
24,CCN(CC)c1ccc(-n2cnc3cc(N)ccc32)cc1,8.06
25,CCOc1ccccc1NS(=O)(=O)c1cc(Cl)ccc1Cl,-10.2
26,O=c1c(Cl)c(Cl)cnn1C12CC3CC(CC(C3)C1)C2,36.2

row,Structure (SMILES),% Inhibition @ 10 uM [%]
1,CC1CCCCN1CCCN1C(=O)c2ccccc2C1C(=O)NC1CCCCC1 (stereo not drawn),2.05
2,Cc1nc2cc(CCO)ccc2s1,-2.66
3,O=C(Nc1ccc(Cl)c(Cl)c1)c1ccccc1NC(=O)c1ccccc1C(=O)O,2.48
4,CC(C)N(CCNC(=O)C1CCN(S(=O)(=O)N2CCOCC2)CC1)Cc1ccccc1,3.93
5,O=C(c1ccc(CSc2nc3ccncc3[nH]2)cc1)N1CCN(C(=O)c2ccco2)CC1,-1.58
6,CCCSCCCNC(=O)C1CCCN(S(=O)(=O)N2CCC3(CC2)OCCO3)C1 (stereo not drawn),4.4
7,CCCn1c(CCC(=O)N2CCC3(CC2)OCCO3)nc2cccnc21,-4.74
8,Cc1ccc(C(=O)N2CCC(C(=O)O)CC2)cc1,0.755
9,Cc1cc2c(c(=O)o1)C(c1cccc(O)c1)C(C#N)=C(N)O2 (stereo not drawn),4.89
10,COc1ccc(NC(=O)c2ccccc2NC(=O)c2cccs2)cc1,0.812
11,Cc1cc(C)c2c(-n3cccc3)c(C(=O)NCc3ccc4c(c3)OCO4)sc2n1,-1.08
12,O=C(Nc1ccc(Br)cc1)C1CC=CCC1C(=O)OCC1CCCO1 (stereo not drawn),-0.25
13,COC(=O)c1ccc2[nH]c(S)nc2c1,18.9
14,CCNCC1(c2ccc(OC)c(OC)c2)CCCC1,2.78
15,COc1cccc(NC(=O)c2cccc(C(F)(F)F)c2)c1,4.31
16,CCOC(=O)N1CCC(NC(=O)C2CCN(c3nn4c(=O)cc(C)nc4s3)CC2)CC1,-0.281
17,O=C(c1ccc(Cl)cc1Cl)N1CCN(c2ccc([N+](=O)[O-])cc2)CC1,-3.65
18,CCc1ccc(OCC(=O)Nc2ccc(S(=O)(=O)N3CCN(C)CC3)cc2)c(Br)c1,-1.63
19,CCCCc1ccc(S(=O)(=O)N2CCN(C(=O)c3ccco3)CC2)cc1,-5.14
20,CCNC(=S)N1CCN(CC/N=C/C2=C(O)CC(c3cccs3)CC2=O)CC1 (stereo not drawn),2.09
21,COC(=O)c1sccc1NC(=O)CCC(=O)O,6.91
22,Cc1ccc(CNC(=O)c2cc(S(=O)(=O)N3CCCC3)cn2C)cc1,1.1
23,O=C1c2ccncc2C(=O)N1c1ccc(F)cc1,2.17
24,c1ccc(CN2CCN(Cc3cccc4ccccc34)CC2)cc1,3.16
25,CCOc1ccccc1C1NC(C(=O)O)CS1 (stereo not drawn),3.66
26,O=C(CCNC(=O)c1ccc(Br)o1)NCCC1=CCCCC1,-4.32

row,Structure (SMILES),% Inhibition @ 10 uM [%]
1,CC1(C)[C@H]2CC=C(CN3CCN(c4cccc(Cl)c4)CC3)[C@@H]1C2,-2.02
2,O=C(O)CNC(=S)N(Cc1ccco1)Cc1ccccc1Cl,4.42
3,Cc1cc(C)nc(Nc2ccccc2C(=O)O)n1,5.03
4,Cc1ccc(S(=O)(=O)NCC(=O)NC(C)(C)C)cc1,7.42
5,CCCC/C(=N\CCc1c(C)[nH]c2ccc(OC)cc12)C1=C(O)CCCC1=O,-0.703
6,CC(=O)Nc1cccc(NC(=O)C(c2ccccc2)c2ccccc2)c1,-2
7,CCOC(=O)c1c(C)oc2ncnc(NCCc3ccc(OC)cc3OC)c12,-6.36
8,Cc1nc(/C=C\C(=O)O)c2cc(C)oc2n1,4.74
9,Cc1ccn(C(=O)COc2ccc(Br)cc2)n1,-4.77
10,O=C(O)CC(c1ccccc1)c1cc(Br)ccc1O (stereo not drawn),-3.63
11,CCOC(=O)C1=C(Cn2ccnc2)NC(=O)NC1c1cccs1 (stereo not drawn),6.76
12,CCOc1ccc(CCNC(=O)c2c(-n3cccc3)sc(C)c2C)cc1OCC,10.4
13,CC(=O)c1cc(C(C)(C)c2ccc(O)cc2)cc(C(C)=O)c1O,4.12
14,CCOc1cccc2c1OC1(C)CC2C(C(=O)c2ccccc2)C(=O)N1 (stereo not drawn),-2.21
15,COc1cc(/C=C2\SC(Nc3ccc(F)cc3)=NC2=O)cc(OC)c1OC,-7.16
16,O=C(c1scc2c1CCCC2)N1CCN(c2ccccc2)CC1,-14.4
17,CCOc1ccc(NC(=O)C2=C(C)NC(=O)NC2c2ccccc2F)cc1 (stereo not drawn),-2.05
18,CC(=O)N(CN1C(=O)c2cc(Cl)c(Cl)cc2C1=O)c1cccc(C)c1,3.24
19,Cc1cc(-c2ccc(C)c(S(=O)(=O)N3CCN(C(=O)c4ccco4)CC3)c2)on1,-3.98
20,CN1C(=O)c2[nH]nc(-c3ccccc3)c2C1c1ccccn1 (stereo not drawn),-1.07
21,Cc1nn(C)c(C)c1S(=O)(=O)N1CCC(C(=O)NC2CCCc3ccccc32)CC1 (stereo not drawn),0.708
22,COc1cc(C2C3=C(O)CC(C)(C)CC3=NC(C)=C2C(=O)Nc2ccc(F)cc2)cc(OC)c1OC (stereo not drawn),-4.48
23,O=C(c1ccc([N+](=O)[O-])cc1)N1CCCCCC1,-3.79
24,O=C(Nc1cc(Cl)ccc1Cl)c1ccc(Cn2cc(Cl)cn2)o1,0.317
25,O=C(NC(Cc1ccccc1)C(=O)NCCc1ccccc1)C1CCCCC1 (stereo not drawn),4.69
26,Cc1cc(NC(=O)Nc2cn(C)c(=O)c3ccccc23)no1,2.5

row,Structure (SMILES),% Inhibition @ 10 uM [%]
1,CCOc1ccc(C(CC(=O)O)NC(=O)C2CCCCC2)cc1OC (stereo not drawn),0.279
2,N#CCNC(=O)C(CC(=O)N1CCCC1)CS(=O)(=O)Cc1ccccc1 (stereo not drawn),-5.21
3,CCOC(=O)c1ccc(CNC(=O)CSc2nnnn2-c2ccc(Cl)cc2)o1,2.7
4,O=C1CCCN1c1cccc2ccccc12,4.44
5,CCN(Cc1ccccc1)C(=O)c1ccc(C/N=c2/c(N3CCOCC3)c(O)c2=O)cc1,2.76
6,Cc1cc(C)c2nc(N3CCC(C(=O)N4CCN(C5CCCCC5)CC4)CC3)sc2c1,4.95
7,Cc1cc(/C=C2/C(=N)N3C=CSC3=NC2=O)c(C)n1-c1ccccc1,-2.98
8,COc1ccc2[nH]c(C)c(CCNCc3cn(C)c4ccccc34)c2c1,-4.35
9,CCC1(C)Cc2ccccc2-c2[nH]nc(O)c21 (stereo not drawn),-1.24
10,COc1ccc(-c2noc(CCC(=O)Nc3cccnc3)n2)cc1OC,-1.35
11,COc1cc2c(cc1OC)C(C(=O)NC1CCCCC1)C1c3ccccc3CCN1C2=O (stereo not drawn),0.208
12,Cc1cccnc1NC(=O)CN1Cc2ccccc2C1=O,5.08
13,Nc1cc[n+](CCCc2ccccc2)cc1,-2.53
14,OCCN1CCN(Cc2ccc(Br)cc2)CC1,3.47
15,Fc1ccccc1N1CCN(CC(S)COCc2ccccc2)CC1 (stereo not drawn),-1.68
16,Cc1cc(/C=C2\C(=N)N3N=C(S(=O)(=O)CC(C)C)SC3=NC2=O)c(C)n1Cc1ccccc1,-1.54
17,O=C(CCCn1c(=O)c2cccn2c2cccnc21)NCCCN1CCOCC1,1.22
18,CC(C)(C)c1ccc(OCC(O)CN2CCCCC2)cc1 (stereo not drawn),-2.12
19,CCOc1ccc(-c2cn3nc(C4CCCCC4)sc3n2)cc1,4
20,CCOc1ccccc1CNCc1c(C(=O)O)n(Cc2cccc(F)c2)c2cc(C)ccc12,-0.899
21,CN1CCC(COC2c3ccccc3C=Cc3ccccc32)CC1,2.01
22,COc1cc(C(=O)c2ccccc2)c(OC)cc1C(=O)Nc1ccc(N(C)C)cc1,3.69
23,O=S(=O)(Nc1cc(Cl)cc(Cl)c1)c1ccc(F)cc1,-3.44
24,COc1cc(/C=C2\SC(N)=NC2=O)ccc1OCc1ccc(C)cc1,11.9
